From the RNAGym collection of RNA variant scans (doi:10.1073/pnas.2313332121) come the findings set out here.

This sample is rich in variants without activity.

First the molecules themselves.
B1: TPR 5TU (parent)
chain: GGAUCUUCUCGAUCUAACAAAAAAGACAAAUCUGCCACAAAGCUUGAGAGCAUCUUCGGAUGCAGAGGCGGCAGCCUUCGGUGGCGCGAUAGCGCCAACGUUCUCAACUAUGACACGCAAAACGCGUGCUCCGUUGAAUGGAGUUUAUCAUG

In this series the parent is B1. Description: polymerase ribozyme fitness, log enrichment relative to wild type (log ratio); higher = more active; in vitro selection for triplet polymerase activity. The method in brief: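 Mutant libraries of each subunit of a heterodimeric triplet polymerase ribozyme were built by PCR and transcribed. Each library went through one round of in vitro selection in triplicate: annealing with biotinylated primer, partner subunit and triplets, frozen incubation at −7 °C, gel excision of extended constructs, streptavidin-bead capture and RT-PCR. Input and output libraries were Illumina-sequenced; only genotypes with ≥10 input reads and ≥1 read per output were kept. Fitness is log2(genotype enrichment/wild-type enrichment), using inverse-variance-weighted replicate averages.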
On to GGAUCUUCUCGAUCUAACAAAAAAGACAAAUCUGCCACAAAGCAUGAGAGCAUCUUCGGAUGCAGAGGCGGCAGCCUUCGGUGGCGAGAUAGCGCCAACGUUCUCAACUAUGACAGGCAAAAGGCGUGCUGCGUUUAAUGUAGUUUAUCAUG, for which the “polymerase ribozyme fitness (log ratio)” value is at most -4.2.
Take GGAUCUUCUCGAUCUAACAAAAAAGACAAAUCUGCCACAAAGCAUGAGAGCAUCUUCGGAUGCAGAGGCGGCAGCCUUCGGUGGCGCGAUAGCGCCAACGUUCUCAACUAUGACACGCAAAACGCGUGGUCCGUUGAAUGUAGUUUAUCAUG: the “polymerase ribozyme fitness (log ratio)” value was at most -4.2.
Regarding GGAUCUUCUCGAUCUAACAAAAAAGACAAAUCUGCCACAAAGUUUGAGAGCAUCUUCGGAUGCAGAGGCGGCAGCCUUCGGUGGCGCGAGGGUGCCAACGUUCUCAACUAUGACACGCAAAACGCGUGCUCCGUUGAAUGGAGUGUAUCAUG, the “polymerase ribozyme fitness (log ratio)” value was at most -4.2.
For GGAUCUUCUCGAUCUAACAAAAAAGACAAAUCUGCCACAAAGCAUGUGAGCAUCUUCGGAUGCAGAGGCGGCAGCCUUCCGUGGCGCGAUAGGGCCAACGUUCUCAACUAUGACACGCAAAACGCGUGCUCCGUUGAAUGCAGUUUAUCAUG the value was at most -4.2; for GGAUCUUCUCGAUCUAACAAAAAAGACAAAUCUGCCACAAAGCAUGAGAGCAUAUUCGGAUGCAGAGGCGGCAGCCUUCGGUGGCGCGAUAUCGCCAACGUUCUCACCUAUGACACGCAAAACGCGUGCUCCGUUGAAUGGAGUUUAUCAUG, at most -4.2.
On to GGAUCUUCUCGAUCUAACAAAAAAGACAAAUCUGCCACAAAGCAUGAGAGCAUCUUCGGAUGCAGAGGCGGCAGCCUUCGGUGGUGCGAUAGCGCCAACGUUCUCAACUAUGACACGCAAAACGCGUGCUCCGUUGAAUGGAGUUUAUCAUG, for which the “polymerase ribozyme fitness (log ratio)” value is -4.17.
On to GGAUCUUCUCGAUCUAACAAAAAAGACAAAUCUGCCACAAAGCAUGAGAGCAUCUUCGGAUGGAGAGGCGGCAGCCUUCGGUGGUGCGAUAGCGCCAACGUUAUCAACUAUGACACGCAAAACGCGUGCUCCGUUGAAUGGAGUUUAUCAUG, for which the “polymerase ribozyme fitness (log ratio)” value was at most -4.2.
Regarding GGAUCUUCUCGAUCUAACAAAAAAGACAAAUCUGCCACAAAGCAUGAGAACAUCUUCGGAUGCAGAGGCGGCAGCCUUCGGUGGCGCGAUAGCGCAAACGUUCUCAACUAUGACACGCAAAACGCGUGCUCCGUUUAAUGGAGUUUAUAAUG, the “polymerase ribozyme fitness (log ratio)” value is at most -4.2.
Take GGAUCUUCUCGAUCUAACAAAAAAGACAAAUCUGCCACAAAGCAUGAGAGCAUUUUCGGAUGCAGAGGCGGCAGCCUUCGGUGGCGCGAUAGCGCCAACGGUCUCAACUAUGACACGCAAAACGCGUGCUCCGUUGAAUUGAGUUUAUCAUG: the “polymerase ribozyme fitness (log ratio)” value was at most -4.2.
For GGAUCUUCUCGAUCUAACAAAAAAGACAAAUCUGCCACAAAGCAUGAGAGCAUCUUCGGGUGCAGAGGCGGCAGCCUUCGGUGGCGCGAUAGCGCCAACGUUCUCAACUAUGACACGCAAAACGCGUGCUCCGUUAAAUGGAGUUUAUCAUG the value was at most -4.2.
For the variant GGAUCUUCUCGAUCUAACAAAAAAGACAAAUCUGCCACAAAGCAUGAGAGCAUCUUCGGAUGCAGAGGCGGCAGGCUUCGGUGGUGCGAUAGCGCCAACGUUCUCAACUAUGACACGCAAAACGCGUGCUCCGGUGACUGGAGUUUAUCAUG, the “polymerase ribozyme fitness (log ratio)” value is at most -4.2.
The value for GGAUCUUCUCGAUCUAACAAAAAAGACAAAUCUGCCACAAAGCAUGAGAGCAUCUUAGGAUGCAGAGGCGGCAGCCUUCGGUGGCGCGAUAGCGCCAACGUUCUCAACUAUGACACGCAAAACGCGUACUCCGUUGAAAGGAGUUUAUCAUG was at most -4.2; that for GGAUCUUCUCGAUCUAACAAAAAAGACAAAUCUGCCACAAAGCAUGAGAGCUUCUUCGGAUGUAGAGGCGGCAGACUUCGGUGGCGCGAUCGCGCCAACGUUUUCAACUAUGACACGCAAAACGCGUGCUCCGUUGAAUGGAGUUUAUCAUG was at most -4.2; that for GGAUCUUCUCGAUCUAACAAAAAAGACAAAUCUGCCACAAAGCAUCAGAGCAUCUUCGGAUGCAGAGGCGGCAGGCUUCGGUGGCGCGAUAGCGCCAACGUACUCAACUAUGACACGCAUAACGCGUGCGCCGUUGAAUGGAGUUUAUCAUG was -3.99.
For GGAUCUUCUCGAUCUAACAAAAAAGACAAAUCUGCCACAAAGCAUGAGUGCAUCUUCGGAUGCAGAGGCGGCAGCCUGCGGUGUCGCGAUAGCGCCAACGUUCUCAUCUAUGACACGCAAAACGCGUGCUCCGUUGAAUGGAGUUUAUCAUG the value was at most -4.2; for GGAUCUUCUCGAUCUAACAAAAAAGACAAAUCUGCCACAAAGCAUGAGAGCCUAUUCGGAUGCAGAGGCGGCAGCCUUCGGUGGCGCGAUAACGCCAACGUUCUCAACUAUGACACGCAAAACGCGUGCUCCGUUGAAUGCAGUUUAUCAUG, at most -4.2; for GGAUCUUCUCGAUCUAACAAAAAAGACAAAUCUGCCACAAAGUUUGAGAGCAUCUUCGGAUGCAGAGGCGGCAGCCUUCGGUGGCGCGAUAGCGCCAACGUUCUCAACUAUGACACGCAAAACGCGUGCUCCGUUGAAUGGAGGUUAUCAUG, at most -4.2.
The value for GGAUCUUCUCGAUCUAACAAAAAAGACAAAUCUGCCACAAAGCAUGGGAGCAUCUUCGGAUGCAGAGGCGGCAGCCUUCGGUGGCUCGAUAGCGCCAACGUUCUCAACUAUGACACGCAAAACGCGUGCUCCGUUGAAUGGAGUUUAUCAUG was at most -4.2.
As to GGAUCUUCUCGAUCUAACAAAAAAGACAAAUCUGCCACAAAGCAUGAGAGUAUCUUCGGAUCCAGAGGCGGCAGCCUUCGGUGGCGGGAUAGCGCCAACGUUCGGUACUAUGACACGCAAACCGCGUGCUCCGUUGAAUGGAGUUUAUCAUG, the “polymerase ribozyme fitness (log ratio)” value is at most -4.2.
Take GGAUCUUCUCGAUCUAACAAAAAAGACAAAUCUGCCACAAAGCAUGAGAGCAUCUUCAGAUGCAGAGGGGGCAGCCUUCGGUGGCGCGAUAGCGCCAACGUUCUCAACUAUGACACGCAAAACGCGUGCUCCGUUGAAUGGAGUUUAUCCUG: the “polymerase ribozyme fitness (log ratio)” value is at most -4.2.
For GGAUCUUCUCGAUCUAACAAAAAAGACAAAUCUGCCACAAAGCAUGAGAGCAUCUUCGGAUGCAGAGGCGGCGGCCUUCGGUUGCGCGAUAGCGCCAACGUUCUCAACUAUGACACGCAAAACGCGUGUUCUGUUGAAUGGAGUUUAUCAUG the value was at most -4.2; for GGAUCUUCUCGAUCUAACAAAAAAGACAAAUCUGCCACAAAGCAUGAGAGCAUCUUCGGAUGCAGGGGCGGCAGCCUUCGGUGGCGCGAUAGCGCCAACGUUCUCAACUAUGACACGCAAAACGCGUACUCCGUUGAAUGGAGUUCAUCAUG, at most -4.2; for GGAUCUUCUCGAUCUAACAAAAAAGACAAAUCUGCCACAAAGCAUGAGAGCAUCUUCGGAUGCAGAGGCGGCAGCCUUCGGUGGCGCGAUAGCGCCAGCGAUCUCAACUAUCACACGCAAAACGCGUGCUCCGUUGAAUGGAGUUUAUCAUG, at most -4.2.
Turning to GGAUCUUCUCGAUCUAACAAAAAAGACAAAUCUGCCACAAAGCAUGAGAGCAUCUUCAGAUGCAGAGGCGGCAGCCUUCGGUGGCGCGAUAGUGCGGUCGUUCUCAACUAUGACACGCGAAACGCGUGCUCCGUUGAAUGGAGCUUAUCUUG, the “polymerase ribozyme fitness (log ratio)” value is at most -4.2.
Take GGAUCUUCUCGAUCUAACAAAAAAGACAAAUCUGCCACAAAGCAUGAGAGCAUCUUCGGGUGCAGAGGCGGCAGCCUUCGGUAGCGCGAUAGCGCCAACGUUCUGAACUAUGACACGCAAAACGCGUUCUCCGUUGGAUGGAGUUUAUCAUG: the “polymerase ribozyme fitness (log ratio)” value is at most -4.2.
For GGAUCUUCUCGAUCUAACAAAAAAGACAAAUCUGCCACAAAGCAUGAGAGCAUCUUCCGAUGCAGAGGCGGCAGCCUUCGGUGGCGCGAUGGCGCCAACGUUCUCAACUAUGACCCGCAAAACGCGUGCUCCGUUGAAUGGAGUUUAUCAUG the value was at most -4.2.
GGAUCUUCUCGAUCUAACAAAAAAGACAAAUCUGCCACAAAGCAUGAGAGCAUCUUCGGAUGCAGAGGCGGUGGCCUUCGGUGGCUCGAUAGCGCCAACGUUCUCAACUAUGACACGCAAAACGCGUGCUCCGUUGACUGGAGUUUAUCAUG: the “polymerase ribozyme fitness (log ratio)” value was at most -4.2.
GGAUCUUCUCGAUCUAACAAAAAAGACAAAUCUGCCACAAAGCAUGAGACCAUCUUCGGAUGAAGAGGCGGCAGCCUUCGGUGGCGCGAUAUCGCCAACGUUCUCAACUAUGACACGCAAAAAGCGUGCUCCGUUGAAUGGAGUUUAUCAUG: the “polymerase ribozyme fitness (log ratio)” value is at most -4.2.
The value for GGAUCUUCUCGAUCUAACAAAAAAGACAAAUCUGCCACAAAGCAUGAGAGCCUCUUCGGAUGCAGCGGCGGCCGCCUUCGGUGGCGGGAUAGCGUCAACGUUCUCAACUAUGACGCGCAAUACGCGUGCUCCGUUGAAUGGAGUUUAUCAUG was at most -4.2; that for GGAUCUUCUCGAUCUAACAAAAAAGACAAAUCUGCCACAAAGCAUGAGAGCAUCUUCGCAUGCAGAGGCGGCAGCCUUCGGUGGCGCGAUAGCCCCAACGUUGUCAACUAUGACACGCAAAACGCGUGCUCCGUUGAAUGGAUUUUAUCAUG was at most -4.2.
On to GGAUCUUCUCGAUCUAACAAAAAAGACAAAUCUGCCACAAAGCAUGAGAGCAUCUUCGGAUUCAGAGGCGGCAGCCUUCCGUGGCGCGAUAGCGCCAACGUUCUCAACUAUGACACGCAAAACGCGUGCUCCGUUGAAUCGAGUUUAUCAUG, for which the “polymerase ribozyme fitness (log ratio)” value was at most -4.2.
The value for GGAUCUUCUCGAUCUAACAAAAAAGACAAAUCUGCCACAAAGCAUGCGAGCAUCUUCGGAUGCAGAGGAGGCAGCCUUCGGUGGCGCGCUAACGCCAACGUUCUCAACUUUGACACGGAAAACGCGUGCUCCGUUGAAUGGAGUUUAUCAUG was at most -4.2; that for GGAUCUUCUCGAUCUAACAAAAAAGACAAAUCUGCCACAAAGCAUGAGAGCGUCAUCGGAUGCAGCGGCGGCAGCGUUCGGUGUCGCGAUAGCGCCAACGUUCUCAACUAUGACACGCAAAACGCGUGCGCCGUUGAAUGGAGUUUAUCAUG was at most -4.2; that for GGAUCUUCUCGAUCUAACAAAAAAGACAAAUCUGCCACAAAGCAUGAGAGCAUCUUCGGAUGCAGAGGCGGCAGCGUUCGGUGGCGCGAUAGCGCCAACGUUCUCCACUGUGACACGCAAAACGCGUGCUCCGUCGAAUGGAGUUUAUCAUG was at most -4.2.
For GGAUCUUCUCGAUCUAACAAAAAAGACAAAUCUGCCACAAAGCAUGAGAGCAUCUUCGGAUGCAGGGCCGGCAGCCUUCGGUGGCGCGAUAGCGCCAACGUUCUCAACUAUGACACGCAAAACGCGUGCUCCGUUGAAUGGAGUUUAUCAUG the value was at most -4.2; for GGAUCUUCUCGAUCUAACAAAAAAGACAAAUCUGCCACAAAGCAUGAGAGCAUCUUCGGAUGCAGAGGGGGCAGCCUGCGGUGGCACGAUAGCGCCAACGUUCUCAACUAUGACACGCAAAACGCGUGCUCCGUUGAAUGGCGUUUAUCAUG, at most -4.2; for GGAUCUUCUCGAUCUAACAAAAAAGACAAAUCUGCCACAAAGCAUGAGAGCAUCUUCGGAUGCAGGGGCGGCAGCCUUCCGUGGCGCGAUAGCGCCAACGUUCUCAACUAUGACACGCAAAACGCGUGCUCCGUUGAAUGGAGUUUAUCAUG, at most -4.2.
As for GGAUCUUCUCGAUCUAACAAAAAAGACAAAUCUGCCACAAAGCAUGACAGCAUCUUCGGAUGCAGAGGCGGCAGCCUUCGGUGGCGAGAUAGCGCCAACGUUCUCAACUAUGACUCGCAAAACGAGUGCUCCGUUGAAUGGAGUUUAUCAUG, the “polymerase ribozyme fitness (log ratio)” value was at most -4.2.
